# Inconclusive results are not listed. Unless noted, calls follow the shape of the dose curve; as a rule, active = well fitted curve in the direction sought with a large enough effect in the repeat runs; inconclusive = weak or mixed curves; inactive = no such curve, though single readings can be large; an effect the other way counts as inactive or inconclusive. Where a structure was tested more than once in an assay, its records may differ in their call. Certain results were filed several times, with different values. This list holds those alone. An entry can have further records. Values that stand side by side repeat one measurement (runs, samples, wells, individuals or studies). Brackets tell where a record comes from. Letters hold for one entry only.
# What was measured:
# [1] = qHTS assay to identify small molecule agonists of the constitutive androstane receptor (CAR) signaling pathway - cell viability counter screen (AID 1224836); details: HepG2-CYP2B6-hCAR viability, CellTiter-Fluor, 23 h, PK11195 added to every well; series mostly up to 42.5 µM; also: nearly all actives have a fitted effect of over 45% in size
# Outline: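 Viability read-out: CellTiter-Fluor fluorescence after 23 h compound exposure at 37 C/5% CO2 in double-stable HepG2-CYP2B6-hCAR cells, with PK11195 present at 0.75 uM final; compounds tested in 15-point titration.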
# [2] = qHTS assay to identify small molecule antagonists of the constitutive androstane receptor (CAR) signaling pathway - cell viability counter screen (AID 1224837); details: HepG2-CYP2B6-hCAR viability, CellTiter-Fluor, 23 h, co-treated with 50 nM CITCO; series mostly up to 42.5 µM; also: nearly all actives have a fitted effect of over 45% in size
# Outline: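 HepG2 cells stably expressing hCAR and a CYP2B6-2.2kb reporter were plated and pre-incubated 4 hr at 37 C/5% CO2, then given compounds at 15 concentrations plus 50 nM CITCO (final). After 23 hr, viability was read by CellTiter-Fluor fluorescence.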
# [3] = A CellTox Green Cytotoxicity Assay to monitor cytotoxicity in HEK293 cells - 24 hour (AID 1224875); details: CellTox Green fluorescence; series mostly up to 76.8 µM; also: nearly all actives have a fitted effect of over 45% in size
# Outline: (§1)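 HEK293 cells premixed with CellTox Green dye were seeded at 600 cells/well and left 5 h at 37 C/5% CO2 before pin transfer of 23 nL compound in DMSO. Fluorescence from dye bound to dead-cell DNA was read during 40 h treatment.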
# [4] = A CellTox Green Cytotoxicity Assay to monitor cytotoxicity in HEK293 cells - 16 hour (AID 1224888); details: CellTox Green fluorescence; series mostly up to 76.8 µM; also: nearly all actives have a fitted effect of over 35% in size
# Outline: as §1
# [5] = qHTS assay for small molecules that induce genotoxicity in human embryonic kidney cells expressing luciferase-tagged ATAD5 - cell viability (AID 651634; calls by dose curve; also: nearly all actives have a fitted effect of over 25% in size); details: HEK293T ATAD5-luc cells viability, CellTiter-Fluor, 15.5 h; series mostly up to 83.3 µM
# Outline: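 HEK293T cells expressing luciferase-tagged ATAD5 were exposed to compound or DMSO for 15.5 hr at 37C, 5% CO2. Viability was then read as live-cell protease activity by CellTiter-Fluor fluorescence after 30 min at 37C.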
# [6] = qHTS assay to identify small molecule antagonists of the estrogen receptor alpha (ER-alpha) signaling pathway using the BG1 cell line in the presence of 0.1 nM 17-beta-estradiol - cell viability counter screen (AID 1259241); details: VM7Luc4E2 (BG1) viability, CellTiter-Fluor protease, 22 h, 0.1 nM estradiol agonist added; series mostly up to 92.4 µM; also: nearly all actives have a fitted effect of over 40% in size
# Outline: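 Live-cell protease activity (CellTiter-Fluor fluorescence, 30 min) was read in the same wells after VM7Luc4E2 cells had been exposed to compounds with 0.1 nM 17beta-estradiol for 22 hr at 37C.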
# [7] = qHTS assay to identify small molecule antagonists of the progesterone receptor (PR) signaling pathway - cell viability counter screen (AID 1346798); details: PR-UAS-bla HEK293T viability, CellTiter-Glo luminescence, 16 h; series mostly up to 92.4 µM; also: nearly all actives have a fitted effect of over 50% in size
# Outline: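 Luminescence readout (CellTiter-Glo, 30 min, RT) of viability in PR-UAS-bla HEK293T cells exposed to compound and R5020 agonist for 16 hr at 37C, 5% CO2; run in the same wells as the beta-lactamase reporter read.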
# Potency is read from the fitted curve at half-maximal effect.
smiles,measurement,setting,value
Cc1c(C(=O)O)c(O)cc2c1C(=O)c1c(O)c([C@@H]3O[C@H](CO)[C@@H](O)[C@H](O)[C@H]3O)c(O)c(O)c1C2=O,Potency,[1],active: 21.7 µM [sample A] and inactive [sample B]
same,Potency,[2],active: 37.6 µM [sample A] and inactive [sample B]
CC1(C)O[C@@H]2C[C@H]3[C@@H]4CCC5=CC(=O)C=C[C@]5(C)[C@@]4(F)[C@@H](O)C[C@]3(C)[C@]2(C(=O)CO)O1,Potency,[3],inactive [sample A] and inactive [sample B] and active: 9.52 µM [sample C]
same,Potency,[4],inactive [sample A] and inactive [sample B] and active: 9.52 µM [sample C]
CN(C)C(=S)SC(=S)N(C)C,Potency,[5],active: 5.59 µM [sample A] and inactive [sample B]
CCCCCCCCCCCCCCCC[N+](C)(C)Cc1ccccc1,Potency,[2],active: 55.5 µM [sample A] and inactive [sample B]
CCCCCCc1ccc(O)cc1O,Potency,[3],active: 49.1 µM [sample A] and active: 49 µM [sample B] and inactive [sample C]
O=c1[nH]cc(F)c(=O)[nH]1,Potency,[1],active: 17.9 µM [sample A] and inactive [sample B] and inactive [sample C]
same,Potency,[2],active: 20.1 µM [sample A] and inactive [sample B] and inactive [sample C]
same,Potency,[6],active: 22.5 µM [sample A] and inactive [sample B] and inactive [sample C]
same,Potency,[7],active: 17.9 µM [sample A] and inactive [sample B] and inactive [sample C]

# Reference: PubChem BioAssay (Tox21)
